27 compounds from the antibiotic and cytotoxicity screens of Wong et al. (2023) can be followed below.

One test deals with HSkMC. The experiment in a line: cytotoxicity call (relative viability < 0.9). To be noted: 10 µM.
For a further test, the system named is HepG2. The experiment in a line: cytotoxicity call (relative viability < 0.9). To be noted: 10 µM.
For a further test, the system named is S. aureus RN4220. The experiment in a line: growth inhibition call (relative growth <= 0.2). The following applies: 50 µM.

SMILES strings stand for the structures. This is one part of the list.

On to `C[C@H](CO)N1C[C@H](C)[C@H](CN(C)Cc2ccc(C(=O)Nc3ccccc3N)cc2)Oc2ccc(NC(=O)Nc3ccc(F)cc3)cc2CC1=O`, for which the cytotoxicity call in the test with HSkMC and in the test on HepG2 was “inactive” in each case. Besides, in the test with S. aureus RN4220, the growth inhibition call is “inactive”.

In the case of `C[C@@H]1CN([C@@H](C)CO)C(=O)c2cccc(NC(=O)Nc3ccc(C(F)(F)F)cc3)c2O[C@H]1CN(C)S(=O)(=O)c1ccc(Cl)cc1`, the cytotoxicity call with HSkMC and in the test with HepG2 was “inactive” in each case. For the same compound, in the test with S. aureus RN4220, the growth inhibition call is “inactive”.

`CC(C)NC(=O)Nc1cccc2c1O[C@H](CN(C)Cc1ccc3c(c1)OCO3)[C@@H](C)CN([C@@H](C)CO)C2=O`: the cytotoxicity call in the test with HSkMC and in the test on HepG2 was “inactive” throughout. In the test with S. aureus RN4220, the growth inhibition call was “inactive”.

Consider `C[C@@H]1CN([C@@H](C)CO)C(=O)Cc2cc(NS(=O)(=O)c3cccs3)ccc2O[C@H]1CN(C)S(=O)(=O)c1ccccc1`, for which the cytotoxicity call with HSkMC and with HepG2 was “inactive” in each case. For the same compound, the growth inhibition call with S. aureus RN4220 is “inactive”.

In the case of `CO[C@@H]1CN(C)C(=O)c2cc(NC(=O)c3ccccc3)ccc2OC[C@H](C)N(C(=O)CN(C)C)C[C@H]1C`, the cytotoxicity call in the test with HSkMC and in the test with HepG2 was “inactive” throughout. Further, the growth inhibition call in the test with S. aureus RN4220 is “inactive”.

In the case of `C[C@@H]1CN([C@H](C)CO)C(=O)Cc2cc(NC(=O)NC3CCCCC3)ccc2O[C@H]1CN(C)Cc1ccc(-c2ccccc2)cc1`, the cytotoxicity call in the test with HSkMC is “inactive”. For the same compound, in the test with HepG2, the cytotoxicity call was “active”. Further, the growth inhibition call in the test with S. aureus RN4220 is “inactive”.

As to `CC(=O)N1Cc2cc(C(=O)NCc3cccc(F)c3)nc(-c3cccc(C4=CCCCC4)c3)c2[C@H]1CCO`, the cytotoxicity call in the test with HSkMC was “active”. The cytotoxicity call with HepG2 was “inactive”. Besides, the growth inhibition call in the test with S. aureus RN4220 is “inactive”.

For `COc1ccc(S(=O)(=O)Nc2cccc3c2O[C@@H](CN(C)S(=O)(=O)c2ccc(OC)cc2)[C@H](C)CN([C@@H](C)CO)C3=O)cc1`, the cytotoxicity call with HSkMC and with HepG2 was “inactive” throughout. In addition, the growth inhibition call in the test on S. aureus RN4220 was “inactive”.

As to `CCS(=O)(=O)Nc1ccc2c(c1)C(=O)N(C)[C@H]1CC[C@H](CC(=O)NCc3ccccc3F)O[C@@H]1CO2`, the cytotoxicity call in the test with HSkMC and with HepG2 was “inactive” each time. Also, the growth inhibition call with S. aureus RN4220 was “inactive”.

On to `C[C@@H]1CCCCO[C@@H](CN(C)S(C)(=O)=O)[C@H](C)CN([C@@H](C)CO)C(=O)c2cc(NC(=O)CCCN(C)C)ccc2O1`, for which the cytotoxicity call in the test on HSkMC and with HepG2 was “inactive” each time. In addition, the growth inhibition call with S. aureus RN4220 is “inactive”.

As for `C[C@H](CO)N1C[C@H](C)[C@H](CN(C)C(=O)Nc2cccc3ccccc23)OCCCC[C@H](C)Oc2ccc(NC(=O)Nc3cccc4ccccc34)cc2C1=O`, the cytotoxicity call with HSkMC and with HepG2 was “inactive” throughout. For the same compound, the growth inhibition call in the test on S. aureus RN4220 was “inactive”.

In the case of `C[C@@H]1CCCCO[C@H](CN(C)C(=O)Nc2cccc3ccccc23)[C@H](C)CN([C@@H](C)CO)C(=O)c2cc(NS(=O)(=O)c3cn(C)cn3)ccc2O1`, the cytotoxicity call with HSkMC and in the test on HepG2 was “inactive” in each case. Further, the growth inhibition call with S. aureus RN4220 was “inactive”.

Turning to `COc1ccc(NC(=O)Nc2cccc3c2O[C@H](CN(C)S(C)(=O)=O)[C@H](C)CN([C@H](C)CO)C3=O)cc1`, the cytotoxicity call in the test on HSkMC and in the test with HepG2 was “inactive” in each case. In addition, the growth inhibition call in the test with S. aureus RN4220 was “inactive”.

In the case of `C[C@@H]1CCCCO[C@H](CN(C)S(=O)(=O)c2ccccc2)[C@@H](C)CN([C@H](C)CO)C(=O)c2cc(NC(=O)CCCCCC(=O)Nc3ccccc3N)ccc2O1`, the cytotoxicity call in the test on HSkMC and in the test on HepG2 was “inactive” in each case. The growth inhibition call in the test on S. aureus RN4220 is “inactive”.

As for `Cc1noc(C)c1S(=O)(=O)Nc1cccc2c1O[C@@H](CN(C)Cc1ccncc1)[C@@H](C)CN([C@H](C)CO)C2=O`, the cytotoxicity call in the test with HSkMC and in the test on HepG2 was “inactive” each time. For the same compound, the growth inhibition call with S. aureus RN4220 is “inactive”.

Take `Cc1noc(C)c1NC(=O)N(C)C[C@H]1Oc2ccc(NC(=O)Nc3cccc4ccccc34)cc2CC(=O)N([C@@H](C)CO)C[C@@H]1C`: the cytotoxicity call with HSkMC and with HepG2 was “inactive” throughout. The growth inhibition call with S. aureus RN4220 is “inactive”.

For `C[C@@H]1CN([C@H](C)CO)C(=O)Cc2cc(NC(=O)Nc3ccccc3)ccc2O[C@H]1CN(C)S(C)(=O)=O`, the cytotoxicity call with HSkMC and in the test with HepG2 was “inactive” throughout. The growth inhibition call in the test on S. aureus RN4220 is “inactive”.

`C[C@@H]1CN([C@H](C)CO)C(=O)c2cc(NC(=O)CCN3CCOCC3)ccc2O[C@@H]1CN(C)S(=O)(=O)c1cn(C)cn1`: the cytotoxicity call in the test on HSkMC and with HepG2 was “inactive” throughout. Further, in the test on S. aureus RN4220, the growth inhibition call is “inactive”.

Turning to `C[C@@H]1CCCCO[C@@H](CN(C)S(=O)(=O)c2cccs2)[C@H](C)CN([C@H](C)CO)C(=O)c2cc(NC(=O)Cc3ccccc3)ccc2O1`, in the test on HSkMC, the cytotoxicity call is “inactive”. Further, in the test with HepG2, the cytotoxicity call was “active”. The growth inhibition call in the test on S. aureus RN4220 is “inactive”.

Take `CN(C)CCC=C1c2ccccc2Sc2ccc(Cl)cc21.Cl`: in the test on HSkMC, the cytotoxicity call was “inactive”. Moreover, the cytotoxicity call in the test on HepG2 is “active”. Further, the growth inhibition call in the test on S. aureus RN4220 is “inactive”.

In the case of `C=CCSc1nc(=O)cc(N)[nH]1`, the cytotoxicity call in the test with HSkMC and in the test on HepG2 was “inactive” throughout. Also, the growth inhibition call in the test with S. aureus RN4220 was “inactive”.

Regarding `CO[C@@H]1CN(C)C(=O)c2cc(NS(C)(=O)=O)ccc2OC[C@@H](C)N(C(=O)c2ccc3c(c2)OCO3)C[C@@H]1C`, the cytotoxicity call in the test on HSkMC and in the test on HepG2 was “inactive” each time. Also, the growth inhibition call in the test with S. aureus RN4220 is “inactive”.

Consider `C[C@H](CO)N1C[C@H](C)[C@@H](CN(C)Cc2ccc(C(=O)O)cc2)OCCCC[C@H](C)Oc2ccc(NC(=O)c3ccccc3)cc2C1=O`, for which the cytotoxicity call in the test on HSkMC and with HepG2 was “inactive” each time. The growth inhibition call in the test on S. aureus RN4220 was “inactive”.

In the case of `C[C@H]1CCCCO[C@H](CN(C)S(=O)(=O)c2ccc(Cl)cc2)[C@@H](C)CN([C@@H](C)CO)C(=O)c2cc(NC(=O)Nc3ccccc3)ccc2O1`, the cytotoxicity call in the test on HSkMC and in the test with HepG2 was “inactive” each time. The growth inhibition call with S. aureus RN4220 is “inactive”.

On to `N[C@@H](CCC(=O)N[C@@H](CS[N+][O-])C(=O)NCC(=O)O)C(=O)O`, for which the cytotoxicity call in the test on HSkMC and in the test with HepG2 was “inactive” each time. The growth inhibition call in the test on S. aureus RN4220 was “inactive”.

`C[C@@H]1CCCCO[C@@H](CN(C)C(=O)Cc2ccccc2)[C@@H](C)CN([C@H](C)CO)C(=O)c2cc(NC(=O)Nc3cccc4ccccc34)ccc2O1`: the cytotoxicity call in the test on HSkMC and in the test with HepG2 was “inactive” in each case. For the same compound, the growth inhibition call in the test with S. aureus RN4220 was “inactive”.

Regarding `C[C@H](CO)N1C[C@H](C)[C@@H](CN(C)C(=O)Nc2ccc(N3CCCCC3)cc2)OCc2cnnn2CCCC1=O`, the cytotoxicity call in the test on HSkMC (human skeletal muscle cells) and with HepG2 was “inactive” each time. For the same compound, the growth inhibition call with S. aureus RN4220 was “inactive”.
